Test results: the supplement of paper PMC12217912
Some of the results follow. The full chains were built here from the parent and the listed change. Values near 0.05 are background.

B1: TEV protease; numbered along this chain (parent)
chain: MGESLFKGPRDYNPISSSICHLTNESDGHTTSLYGIGFGPFIITNKHLFRRNNGTLVVQSLHGVFKVKDTTTLQQHLVDGRDMIIIRMPKDFPPFPQKLKFREPQREERICLVTTNFQTKSMSSMVSDTSCTFPSGDGIFWKHWIQTKDGQCGSPLVSTRDGFIVGIHSASNFTNTNNYFTSVPKNFMELLTNQEAQQWVSGWRLNADSVLWGGHKVFMVKPEEPFQPVKEATQL

Variants of: B1
Assay: raw area under fraction-flipped curve 0-4 h after induction (AUC4h, not background-subtracted), DNA-recorder readout of cleavage of the substrate (dimensionless); higher = more cleavage of the substrate by the protease variant
Settings: temperature: 34 °C; time window: 0-4 h after rhamnose induction
Description: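 In vivo DNA recorder in E. coli TOP10(DE3) ΔrhaA at 34 °C. Each TEVp single-site mutant (parent TEVp 0) is paired with a single-site variant of the 7-mer TEVs (canonical ENLYFQ|S). The substrate sits between flexible linkers in a Bxb1-sfGFP-TEVs-SsrA fusion, so cleavage stabilises Bxb1 and speeds flipping of a recombination array, read by NGS. The value is the raw area under the fraction-flipped curve over 0-4 h after rhamnose induction (AUC4h), with ≥20 reads per time point. It is not background-subtracted; inactive controls average about 0.047.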
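Also: Bxb1 expression induced with 0.2% (w/v) L-rhamnose at OD600 near 0.5, cultures sampled hourly, flipped fraction per protease–substrate barcode pair counted by paired-end Illumina sequencing.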

| Variant | area with substrate ENLAFQS | area with substrate ENLCFQS | area with substrate ENLDFQS | area with substrate ENLEFQS | area with substrate ENLFFQS | area with substrate ENLHFQS | area with substrate ENLIFQS | area with substrate ENLKFQS | area with substrate ENLLFQS | area with substrate ENLMFQS |
| --- | --- | --- | --- | --- | --- | --- | --- | --- | --- | --- |
| MGESLFKGPRDYNPISSSICHLTNESDGHTTSLYGIGFGPFIITNKHLFRRNNGTLVVQSLHGVFKVKDTTTLQQHLVDGRDMVIIRMPKDFPPFPQKLKFREPQREERICLVTTNFQTKSMSSMVSDTSCTFPSGDGIFWKHWIQTKDGQCGSPLVSTRDGFIVGIHSASNFTNTNNYFTSVPKNFMELLTNQEAQQWVSGWRLNADSVLWGGHKVFMVKPEEPFQPVKEATQL [I84V] | 0.0736 | 0.063 | 0.0617 | 0.0755 | 0.107 | 0.0757 | 0.0795 | 0.0678 | 0.065 | 0.0638 |
| MGESLFKGPRDYNPISSSICHLTNESDGHTTSLYGIGFGPFIITNKHLFRRNNGTLVVQSLHGVFKVKDTTTLQQHLVDGRDMIIIRMPKDFPPFPQKLKFREPQREERICLVTTNFQTKSMSSMVSDTSCTFPSGDGIFWKHWIQTKDGQCGSPLVSTRDGFIVGIHSASNFTNTNNYFTSVPKNFRELLTNQEAQQWVSGWRLNADSVLWGGHKVFMVKPEEPFQPVKEATQL [M188R] | 0.0706 | – | 0.0525 | 0.061 | 0.072 | – | – | 0.0756 | 0.0853 | – |
| MGESLFKGPRDYNPISSSICHLTNESDGHTTSLYGIGFGPFIITNKHLFRRNNGTLVVQSLHGVFKVKDTTTLQQHLVDGRDMIIIRMPKDFPPFPQKLKFREPQREERICLVTTNFQTKSMSSMVSDTSCTFPLGDGIFWKHWIQTKDGQCGSPLVSTRDGFIVGIHSASNFTNTNNYFTSVPKNFMELLTNQEAQQWVSGWRLNADSVLWGGHKVFMVKPEEPFQPVKEATQL [S135L] | 0.0658 | – | – | 0.0619 | 0.0594 | – | – | – | – | – |
| MGESLFKGPRDYNPISSSICHLTNESDGHTTSLYGIGFGPFIITNKHLFRRNNGTLVVQSLHGVFKVKDTTTLQQHLVDGRDMIIIRMPMDFPPFPQKLKFREPQREERICLVTTNFQTKSMSSMVSDTSCTFPSGDGIFWKHWIQTKDGQCGSPLVSTRDGFIVGIHSASNFTNTNNYFTSVPKNFMELLTNQEAQQWVSGWRLNADSVLWGGHKVFMVKPEEPFQPVKEATQL [K90M] | 0.0583 | 0.0554 | – | – | 0.102 | – | – | – | – | – |
| MGESLFKGPRDYNPISSSICHLTNESDGHTTSLYGIGFGPFIITNKHLFRRNNGTLVVQSLHGVFKVKDTTTLQQHLVDGRDMIIIRMPKDFPPFPQKLKFREPQREERICLVTTNFQTKSMSSMVSDTSCTFPSGDGIFWKHWIQTKDGQCGSGLVSTRDGFIVGIHSASNFTNTNNYFTSVPKNFMELLTNQEAQQWVSGWRLNADSVLWGGHKVFMVKPEEPFQPVKEATQL [P155G] | 0.0525 | – | 0.0585 | 0.051 | 0.0564 | 0.0859 | – | 0.0526 | – | 0.0504 |

Same assay, conditions: temperature: 34 °C; time window: 0-4 h after rhamnose induction

| Variant | area with substrate ENLNFQS | area with substrate ENLPFQS | area with substrate ENLVFQS | area with substrate ENLSFQS | area with substrate ENLRFQS | area with substrate ENLWFQS |
| --- | --- | --- | --- | --- | --- | --- |
| MGESLFKGPRDYNPISSSICHLTNESDGHTTSLYGIGFGPFIITNKHLFRRNNGTLVVQSLHGVFKVKDTTTLQQHLVDGRDMVIIRMPKDFPPFPQKLKFREPQREERICLVTTNFQTKSMSSMVSDTSCTFPSGDGIFWKHWIQTKDGQCGSPLVSTRDGFIVGIHSASNFTNTNNYFTSVPKNFMELLTNQEAQQWVSGWRLNADSVLWGGHKVFMVKPEEPFQPVKEATQL [I84V] | 0.0623 | 0.074 | 0.0895 | – | – | – |
| MGESLFKGPRDYNPISSSICHLTNESDGHTTSLYGIGFGPFIITNKHLFRRNNGTLVVQSLHGVFKVKDTTTLQQHLVDGRDMIIIRMPKDFPPFPQKLKFREPQREERICLVTTNFQTKSMSSMVSDTSCTFPSGDGIFWKHWIQTKDGQCGSPLVSTRDGFIVGIHSASNFTNTNNYFTSVPKNFRELLTNQEAQQWVSGWRLNADSVLWGGHKVFMVKPEEPFQPVKEATQL [M188R] | 0.0729 | 0.0609 | – | – | – | – |
| MGESLFKGPRDYNPISSSICHLTNESDGHTTSLYGIGFGPFIITNKHLFRRNNGTLVVQSLHGVFKVKDTTTLQQHLVDGRDMIIIRMPKDFPPFPQKLKFREPQREERICLVTTNFQTKSMSSMVSDTSCTFPLGDGIFWKHWIQTKDGQCGSPLVSTRDGFIVGIHSASNFTNTNNYFTSVPKNFMELLTNQEAQQWVSGWRLNADSVLWGGHKVFMVKPEEPFQPVKEATQL [S135L] | – | – | 0.0494 | 0.0597 | – | – |
| MGESLFKGPRDYNPISSSICHLTNESDGHTTSLYGIGFGPFIITNKHLFRRNNGTLVVQSLHGVFKVKDTTTLQQHLVDGRDMIIIRMPMDFPPFPQKLKFREPQREERICLVTTNFQTKSMSSMVSDTSCTFPSGDGIFWKHWIQTKDGQCGSPLVSTRDGFIVGIHSASNFTNTNNYFTSVPKNFMELLTNQEAQQWVSGWRLNADSVLWGGHKVFMVKPEEPFQPVKEATQL [K90M] | – | 0.0582 | – | – | – | – |
| MGESLFKGPRDYNPISSSICHLTNESDGHTTSLYGIGFGPFIITNKHLFRRNNGTLVVQSLHGVFKVKDTTTLQQHLVDGRDMIIIRMPKDFPPFPQKLKFREPQREERICLVTTNFQTKSMSSMVSDTSCTFPSGDGIFWKHWIQTKDGQCGSGLVSTRDGFIVGIHSASNFTNTNNYFTSVPKNFMELLTNQEAQQWVSGWRLNADSVLWGGHKVFMVKPEEPFQPVKEATQL [P155G] | 0.0591 | 0.03 | 0.0691 | – | 0.0572 | 0.041 |
